The results in this text go back to PMC7673117.

Protein sequences, listed by entry. Tags and fused reporters are not part of them. Residues count along the entry.
UniProt P13747, residues 22-358: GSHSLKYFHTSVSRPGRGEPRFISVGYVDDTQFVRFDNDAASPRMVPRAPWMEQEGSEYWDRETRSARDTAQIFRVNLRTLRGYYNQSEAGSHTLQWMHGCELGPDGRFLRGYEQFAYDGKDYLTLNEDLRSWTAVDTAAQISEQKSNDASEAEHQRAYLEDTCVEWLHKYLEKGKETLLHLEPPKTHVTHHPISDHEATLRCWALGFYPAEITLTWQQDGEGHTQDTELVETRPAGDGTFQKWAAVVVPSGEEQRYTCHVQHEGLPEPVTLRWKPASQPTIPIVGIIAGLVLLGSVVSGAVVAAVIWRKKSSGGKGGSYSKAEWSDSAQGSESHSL

The assay concerns the target human leukocyte antigen (HLA)-E on 721.174 cells (human (endogenous in 721.174 cells)) (UniProt P13747). As to the kind of experiment: flow cytometry on cells; HLA-E surface stabilisation: TAP-deficient 721.174 cells incubated overnight at 26 °C, 5% CO2 in R10 medium with 0–200 μM peptide (200 µM in the screen), stained with anti-HLA-E-PE (clone 3D12); binders defined by an MFI greater than the mean plus 1.5 standard deviations of the No Peptide condition; only the binder purified.

No constants are given. Whether binding was seen depends on the method and setting. Some entries that bind do so weakly or less than the wild type.

B1: LMP1 peptide variant … (GCD) (peptide)
peptide: GCDPHLPTL
Consider B1, for which the binding result is “no binding (tested: 0–200 μM)”.

B2: LMP1 peptide variant … (GDD) (peptide)
peptide: GDDPHLPTL
Regarding B2, the binding entry is on record as “no binding (tested: 0–200 μM)”.

B3: BZLF1 peptide from an EBV lytic protein (peptide)
peptide: SQAPLPCVL
As for B3, the binding result is on record as “binds”.

B4: LMP1 peptide variant … (GGD_VP) (peptide)
peptide: GGDPHVPTL
In the case of B4, the binding entry is reported as “binds”.
